The record followed here is article PMC12789033.

Protein sequences, listed by entry. Tags and fused reporters are not part of them. Lines headed by an entry give the natural chain unless they say otherwise; changes in a name come on top. Chains listed by the source or under a name are the forms on record and can include a tag or linker. Residues count along the entry.
UniProt Q01196: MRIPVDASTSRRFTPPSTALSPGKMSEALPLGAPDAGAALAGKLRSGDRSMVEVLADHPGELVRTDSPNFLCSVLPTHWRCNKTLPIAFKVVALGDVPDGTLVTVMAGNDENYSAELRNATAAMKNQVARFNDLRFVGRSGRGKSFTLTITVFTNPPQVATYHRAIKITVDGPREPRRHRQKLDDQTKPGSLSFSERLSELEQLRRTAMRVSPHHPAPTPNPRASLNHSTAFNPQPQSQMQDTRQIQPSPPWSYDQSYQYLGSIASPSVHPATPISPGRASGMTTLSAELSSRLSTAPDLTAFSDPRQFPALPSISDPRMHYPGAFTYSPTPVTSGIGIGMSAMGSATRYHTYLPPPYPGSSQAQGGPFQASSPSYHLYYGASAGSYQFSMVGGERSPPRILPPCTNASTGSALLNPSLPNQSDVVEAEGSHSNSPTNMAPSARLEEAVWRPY
FLAG-RUNX1-G365R (Q01196-8, form named): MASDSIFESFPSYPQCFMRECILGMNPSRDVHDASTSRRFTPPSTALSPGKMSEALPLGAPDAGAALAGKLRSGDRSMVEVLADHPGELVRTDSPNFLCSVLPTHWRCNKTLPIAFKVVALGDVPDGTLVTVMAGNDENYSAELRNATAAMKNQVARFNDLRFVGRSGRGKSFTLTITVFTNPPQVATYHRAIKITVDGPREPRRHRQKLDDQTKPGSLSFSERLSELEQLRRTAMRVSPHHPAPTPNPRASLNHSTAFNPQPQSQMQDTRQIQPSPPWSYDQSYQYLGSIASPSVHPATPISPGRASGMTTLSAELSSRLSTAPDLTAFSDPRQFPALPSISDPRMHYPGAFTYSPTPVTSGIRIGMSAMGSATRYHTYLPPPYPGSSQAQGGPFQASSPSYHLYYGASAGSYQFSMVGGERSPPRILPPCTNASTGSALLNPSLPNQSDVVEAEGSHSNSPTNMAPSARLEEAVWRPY
FLAG-RUNX1-R232X (Q01196-8, form named): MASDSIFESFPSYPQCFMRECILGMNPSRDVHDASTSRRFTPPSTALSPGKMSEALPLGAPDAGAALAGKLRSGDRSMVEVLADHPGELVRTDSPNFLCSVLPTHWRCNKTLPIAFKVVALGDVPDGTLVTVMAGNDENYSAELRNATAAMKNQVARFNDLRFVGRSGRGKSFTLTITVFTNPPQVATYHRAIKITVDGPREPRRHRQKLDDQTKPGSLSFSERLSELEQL
FLAG-RUNX1-Y287X (Q01196-8, form named): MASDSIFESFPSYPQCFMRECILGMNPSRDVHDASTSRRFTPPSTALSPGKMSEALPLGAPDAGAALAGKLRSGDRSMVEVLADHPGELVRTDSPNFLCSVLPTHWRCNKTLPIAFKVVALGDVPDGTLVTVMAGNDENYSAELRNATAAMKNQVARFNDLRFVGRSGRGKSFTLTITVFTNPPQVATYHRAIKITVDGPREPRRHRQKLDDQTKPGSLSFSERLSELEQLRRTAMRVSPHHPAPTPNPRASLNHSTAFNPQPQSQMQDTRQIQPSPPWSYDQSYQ
FLAG-RUNX1-Y407X (Q01196-8, form named): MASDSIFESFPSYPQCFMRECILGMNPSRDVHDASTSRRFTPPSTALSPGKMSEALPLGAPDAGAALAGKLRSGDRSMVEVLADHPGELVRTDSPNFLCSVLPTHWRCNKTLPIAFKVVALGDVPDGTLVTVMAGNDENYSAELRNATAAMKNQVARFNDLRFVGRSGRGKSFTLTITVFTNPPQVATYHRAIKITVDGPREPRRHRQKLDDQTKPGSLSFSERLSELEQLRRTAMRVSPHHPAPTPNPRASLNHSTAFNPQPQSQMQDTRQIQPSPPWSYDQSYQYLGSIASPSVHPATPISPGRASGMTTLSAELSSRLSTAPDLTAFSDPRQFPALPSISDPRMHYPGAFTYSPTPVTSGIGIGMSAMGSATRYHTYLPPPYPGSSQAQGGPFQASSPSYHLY
full length, wild type (WT) FLAG tagged RUNX1 (Q01196-8, form named): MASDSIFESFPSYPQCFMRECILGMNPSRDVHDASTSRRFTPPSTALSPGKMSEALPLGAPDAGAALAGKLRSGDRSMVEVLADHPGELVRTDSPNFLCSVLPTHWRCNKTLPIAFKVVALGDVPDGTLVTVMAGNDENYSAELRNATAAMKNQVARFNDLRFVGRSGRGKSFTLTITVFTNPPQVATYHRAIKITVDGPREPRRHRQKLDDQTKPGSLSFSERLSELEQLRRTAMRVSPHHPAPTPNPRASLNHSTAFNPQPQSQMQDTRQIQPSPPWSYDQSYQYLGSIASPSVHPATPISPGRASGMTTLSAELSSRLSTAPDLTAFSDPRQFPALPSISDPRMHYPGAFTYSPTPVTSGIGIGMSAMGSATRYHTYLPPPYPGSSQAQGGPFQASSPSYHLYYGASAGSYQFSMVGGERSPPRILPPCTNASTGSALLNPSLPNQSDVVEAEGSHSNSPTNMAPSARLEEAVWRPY
RUNX1-R320X (Q01196-8, form named): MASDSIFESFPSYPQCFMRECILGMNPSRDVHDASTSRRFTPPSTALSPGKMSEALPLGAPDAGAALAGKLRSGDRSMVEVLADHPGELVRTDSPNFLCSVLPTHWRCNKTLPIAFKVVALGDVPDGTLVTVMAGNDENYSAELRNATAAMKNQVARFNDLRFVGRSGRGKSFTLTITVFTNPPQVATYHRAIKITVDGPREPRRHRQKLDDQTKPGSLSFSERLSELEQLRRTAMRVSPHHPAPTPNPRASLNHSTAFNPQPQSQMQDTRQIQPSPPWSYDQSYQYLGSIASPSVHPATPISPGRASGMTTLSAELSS
UniProt P26599: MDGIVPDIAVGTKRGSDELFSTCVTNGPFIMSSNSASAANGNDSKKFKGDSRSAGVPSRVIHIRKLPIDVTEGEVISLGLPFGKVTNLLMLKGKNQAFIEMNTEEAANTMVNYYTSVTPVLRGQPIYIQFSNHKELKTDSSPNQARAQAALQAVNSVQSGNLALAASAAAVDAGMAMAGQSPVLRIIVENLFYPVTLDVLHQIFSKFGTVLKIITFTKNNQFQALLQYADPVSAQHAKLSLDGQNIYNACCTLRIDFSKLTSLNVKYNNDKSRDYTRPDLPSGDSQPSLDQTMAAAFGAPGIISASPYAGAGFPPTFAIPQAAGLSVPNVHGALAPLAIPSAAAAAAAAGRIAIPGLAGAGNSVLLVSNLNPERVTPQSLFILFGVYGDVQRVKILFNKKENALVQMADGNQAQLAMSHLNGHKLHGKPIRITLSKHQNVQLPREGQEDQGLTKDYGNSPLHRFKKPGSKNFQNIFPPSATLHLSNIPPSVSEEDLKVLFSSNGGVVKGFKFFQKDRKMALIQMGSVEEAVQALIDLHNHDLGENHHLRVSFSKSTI
Myc-PTBP1-RRM1: residues 1-192 of P26599

Results are given in words; binding and its absence hold for the method and conditions named. Binding seen in cells or lysates may run through a third protein. Some entries that bind do so weakly or less than the wild type.

One test has as its target FLAG-RUNX1-G365R (UniProt Q01196). In words: co-IP; HEK293T cells transfected with expression constructs; lysates incubated with primary antibodies and Protein A/G Dynabeads or with anti-FLAG M2 magnetic beads; western blot. Background: Immunoblotting shows a protein as a band on a membrane.
The target in a further test is FLAG-RUNX1-R232X (UniProt Q01196). The description is as above.
The target of another test is FLAG-RUNX1-Y287X (UniProt Q01196). The description is as above.
For a further test, the target named is FLAG-RUNX1-Y407X (UniProt Q01196). The test is described as above.
The target of test [1] is full length, wild type (WT) FLAG tagged RUNX1 (UniProt Q01196). The description is as above.
The target of the next test is RUNX1-R320X (UniProt Q01196). Put plainly: condition: also with a three-fold excess of the RUNX1-R320X plasmid; co-IP; HEK293T cells transfected with expression constructs; lysates incubated with primary antibodies and Protein A/G Dynabeads or with anti-FLAG M2 magnetic beads; western blot.
In test [2] the target is Runt-related transcription factor 1 (RUNX1), endogenous in human cells (human (endogenous in ME-1, MOLM-13, REH and other leukemia cell lines)) (UniProt Q01196). Put plainly: co-IP; endogenous proteins; lysates of mouse CM+ cells, ME-1 and a panel of human AML and ALL cell lines immunoprecipitated with anti-RUNX1 or anti-IgG antibodies and blotted for PTBP1.
The target is the same in test [3]. Put plainly: proximity ligation; Duolink PLA with RUNX1 and PTBP1 antibodies, confocal imaging; MOLM-13 and REH cells (vehicle or entinostat for 48 h), mouse lin- bone marrow and CM+ cells, human CD34+ and primary AML cells.
In another test the target is Myc tag WT PTBP1 (UniProt P26599). Put plainly: co-IP; HEK293T cells transfected with expression constructs; lysates incubated with primary antibodies and Protein A/G Dynabeads or with anti-FLAG M2 magnetic beads; western blot.
Another test addresses Myc-PTBP1-RRM1 (UniProt P26599). The description is as above.

“Myc tag WT PTBP1 (from UniProt P26599 1-557)”: the binding entry in the test with FLAG-RUNX1-G365R is recorded as “binds”; with FLAG-RUNX1-R232X, “no binding”; in the test with FLAG-RUNX1-Y287X, “no binding”; in the test with FLAG-RUNX1-Y407X, “binds”; in [1], “binds”; with RUNX1-R320X, “no binding”.
Take “Polypyrimidine Tract Binding Protein 1 (PTBP1), endogenous in human cells (from UniProt P26599 1-557)”: the binding result in test [2] and in [3] was “binds” each time.
On to “full length, wild type (WT) FLAG tagged RUNX1 (from UniProt Q01196-8 1-480)”, for which the binding entry in the test with Myc tag WT PTBP1 and with Myc-PTBP1-RRM1 was “binds” in each case.
